Test system: organotypic hippocampal slices

## C[C@]12N[C@H](Cc3ccccc31)c1ccccc12 [MK801, dizocilpine, reference compound]
  protection of neuronal injury upon OGD: showed protection of neuronal injury

From patent US7939064B2 (priority 2006, dated 2011)
